Read counts are not given, so values of variants with three or more changes are uncertain.
B1: LINE1-mini (parent)
chain: GGCAGAGCUCAACACAGCGUGGCAAAGUGGCUGUGGCUAGACUGCC

Variants of: B1
Test: self-cleavage, relative activity (ratio to wild type); higher = more cleavage; in vitro, sequencing; the parent is a self-cleaving ribozyme
In the case of GGCCGAGCUCAACACAGCGUGGCAAAGUGGCUGUAGCUAGACUGCA [A4C G35A C46A], the self-cleavage is reported as 0.23. With GGCCGAGCUCAACACAGCGUGGCAAACUCGCUGUAGCUAGACUGCC [A4C G27C G29C G35A] the self-cleavage was 0.05. In the case of GGCCGAGCUCAACACAGCGCGGCAAAGUGACUGUUGCUAGACUGCC [A4C U20C G30A G35U], the self-cleavage is reported as 0.03. With GGCCGAGCUCAAUACAGCGUGGCAAAGUGGCGGUGGCUUGACUUCC [A4C C13U U32G A39U G44U] the self-cleavage was 0.03. Variant GGCCGAGCUCAACACAACGUGGCAAAGUGGCUGUGGCUAUACUGCC [A4C G17A G40U] has a self-cleavage of 0.09. GGCCGAGCUCAAAACAGAGUGGAAAAGUGGCUGUGGAUAGACUGCC [A4C C13A C18A C23A C37A] showed a self-cleavage of 0.06. With GGCCGAGCUCAACACAGCGUGUCAAAGUGGCGGUGGAUAGACUGCC [A4C G22U U32G C37A] the self-cleavage was 0.07. In the case of GGCCGAGCGCAACACAGCGUGGCAAAGUGGGUGUGUCUAUACUGCC [A4C U9G C31G G36U G40U], the self-cleavage is reported as 0.15. In the case of GGCCGAGCACAACACGGCGUGGCACAGUAGCUGUGGCUAGACUGCC [A4C U9A A16G A25C G29A], the self-cleavage is reported as 0.36. GGCCGAGCUCAACACAGCGUGGCAAAGUGGCUGGGGCUAGAUUGCC [A4C U34G C42U] showed a self-cleavage of 0. GGCCGAGCUCAACACAGCGUGGCAAAGUGGCUGUGCCUAGCCUGCC [A4C G36C A41C] showed a self-cleavage of 0.04. In the case of GGCCGAUCUCGACACAGCGUGGCAAAGUGGCUGUGGAUAGACUGCC [A4C G7U A11G C37A], the self-cleavage is reported as 0.11. In the case of GGCCGAGCUCAACACAGCGUGGCAAAGUGGCUGUGGAUAGCAUGCC [A4C C37A A41C C42A], the self-cleavage is reported as 0.1. In the case of GGCCGAGCUCAACACAGCGUGCCAAAGUGGCUGUGGCUAGACUCAC [A4C G22C G44C C45A], the self-cleavage is reported as 0.12. For GGCCGAGCUCAACACAGCGUGGCAAAGUGACCGUGGCUAGACUACC [A4C G30A U32C G44A], the self-cleavage was 0.07. In the case of GGCCGAGCUCAACACAGCGAGGCAAAGUGGCUGUGGCUAGUCUGCC [A4C U20A A41U], the self-cleavage is reported as 0.03. Variant GGCCGAGCUCAACACAUCGUGGCAGAGUGGCUGUGGCUCGACUGCC [A4C G17U A25G A39C] has a self-cleavage of 0.02. With GGCCGAGCUCAACACAGCCUGGAAAAGGGGCUGUGGCUAGACUUCC [A4C G19C C23A U28G G44U] the self-cleavage was 0.03. In the case of GGCCGAGCUCAACACAGCGUCGCAAAGUGGCUGUUGCUAGACUGCC [A4C G21C G35U], the self-cleavage is reported as 0.23. Work on GGCCGAGCUCAACACAGUGUGGCAAAGUGGUUGUGCGUAGACUGCC [A4C C18U C31U G36C C37G] yielded a self-cleavage of 0.08. Variant GGCCGAGCUCAACAGAGCGUGGCAAAGUGGCUGUGGCUAGACUGAC [A4C C15G C45A] has a self-cleavage of 0.02. For GGCCGAGCUCAACACAGCGUGGCAAAGUGGAUGUGGCUACACUGCC [A4C C31A G40C], the self-cleavage was 0.05. Work on GGCCGAUCUCAACACAGCGUGGCAAAGAGGCUGUGGGUAGUCUGCC [A4C G7U U28A C37G A41U] yielded a self-cleavage of 0.03. In the case of GGCCGAGCUCAACACAGCGUAGCAGAGUGGCUGUGGCUAGACUCCC [A4C G21A A25G G44C], the self-cleavage is reported as 0.12. Work on GGCCUAGCGCAACACAGCGUGGCAAAGUGGCUGUGGCUAGACUGCC [A4C G5U U9G] yielded a self-cleavage of 0.03. GGCCCAGGUCAACACAGCGUUGCAAAGUGGCUGUGGCUAGACUGCC [A4C G5C C8G G21U] showed a self-cleavage of 0.22. Variant GGCCGAGCUCAACACAACGUGGCAAAGAGGUUGUGACUAGACUGCC [A4C G17A U28A C31U G36A] has a self-cleavage of 0.04. In the case of GGCCGAGCUCAACACAGAGUUGCAAAGUGGCUGUGGCUAGACUGCC [A4C C18A G21U], the self-cleavage is reported as 0.06. GGCCGAGCUUAAAACAGCGAGGCAAAGUGGCUGUGGCUAGACUGCC [A4C C10U C13A U20A] gave a self-cleavage of 0.02. Variant GGCCGAGCUCAACACAGCGUGGCAAAGUGGCUGUUACUAGACUGCC [A4C G35U G36A] has a self-cleavage of 0.25. GGCCGAGCUCAACACAGGGUGGCAAAGCGGCUGUGGCUAGACUGCU [A4C C18G U28C C46U] showed a self-cleavage of 0.14. For GGCCGAGCACAACACAGCGUGUCAAAGUGGCAGUGGCUAGUCUGCC [A4C U9A G22U U32A A41U], the self-cleavage was 0.16. Work on GGCCGAGCUCAACACAGCGUGGCAAAGUGUCUGUGGCGAGACUGCC [A4C G30U U38G] yielded a self-cleavage of 0.09. Variant GGCCGAAAUCAACACAGCGUGGCAAAGUGGCUGUGGCUAGACUGCC [A4C G7A C8A] has a self-cleavage of 0.98. Variant GGCCGAGCUCAACACAGGGUGGUAAAGCGGGUGUGGCUAGACUACC [A4C C18G C23U U28C C31G G44A] has a self-cleavage of 0.71. In the case of GGCCGAGCUCAAGACAGCGUGGCCAAGUGGCUGUGGAUAGACUGCC [A4C C13G A24C C37A], the self-cleavage is reported as 0.12. GGCCGAGCUCAACACACCGUGGCACAGUGGCUGAGGCUAGAUUGCC [A4C G17C A25C U34A C42U] showed a self-cleavage of 0.01. Variant GGCCGAGCUCAACACAGCGUGGCAAAGUGGCUGUGGCUAGAAUGAC [A4C C42A C45A] has a self-cleavage of 0.04. In the case of GGCCGAGCUCAACACAGCGUGACAGGGUGACUGUGGCUAGACUGUC [A4C G22A A25G A26G G30A C45U], the self-cleavage is reported as 0.16. GGCCAAGCUCAGCACAGCGUGGCAAAGUGGCUGUGGCUAGACUGCC [A4C G5A A12G] gave a self-cleavage of 0.02. With GGCCGAGCUCAACACAGCUUGGCAAAGUAGCUGUGGCGAGACUGCC [A4C G19U G29A U38G] the self-cleavage was 0.05. With GGCCGAGCUCAACACAGCGUGGCAAAGUGGCUGUGGGUAGUCUGCC [A4C C37G A41U] the self-cleavage was 0.05. For GGCCGAGCUCAACACAGCGUGGCAAAGUGGAUGUGGCUAGACCGCC [A4C C31A U43C], the self-cleavage was 0.06. GGCCGAGCUCAAGACAGCGUGUCAAAGUGGGUGUGGCUAGACUGCC [A4C C13G G22U C31G] showed a self-cleavage of 0.02. In the case of GGCCAAGCUCAACACAGCGUGGCAAAGUAGCUGUGGCUAGACUGAC [A4C G5A G29A C45A], the self-cleavage is reported as 0.08. With GGCCGAGCUCAACACAGCGUGGCAAAGUAGCUGUGUCUAGACGGCC [A4C G29A G36U U43G] the self-cleavage was 0. GGCCGAGCUCAACACAGCGUGGCAAAGUGGCUGUGACUAGACUGUC [A4C G36A C45U] gave a self-cleavage of 0.27. With GGCCGAGCUCAACACAGCGUGGCAAAGUGGCUGUGGCUAGAGUGAC [A4C C42G C45A] the self-cleavage was 0.03. With GGCCGAGCACAACUGAGCGUGACAAAGUGGCUGUGGCUAGACUGGC [A4C U9A A14U C15G G22A C45G] the self-cleavage was 0.16. GGCCGAGCUGAACACAGCGUGGCAAAGUGGCUGCGGCUUGACUGCC [A4C C10G U34C A39U] gave a self-cleavage of 0.01. For GGCCGAGCUCAACACAGUGUGGCAAAGUGGCCGUGGCUAGACUGCC [A4C C18U U32C], the self-cleavage was 0.02. For GGCCGAUCUCAACUCAGAGUGGCAAAGUGGCUGUGGCUAAACUGCC [A4C G7U A14U C18A G40A], the self-cleavage was 0.16. In the case of GGCCGAGCUCAACACAGAGGGGAAAAGUGGCUGCGGCUAGACUGCC [A4C C18A U20G C23A U34C], the self-cleavage is reported as 0.09. With GGCCGAAGUCAACACAGCGUGGCAAAUUGGCUGUGGCUAGACUGCC [A4C G7A C8G G27U] the self-cleavage was 0.09. Variant GGCCGAGCUCAACACAGCGUGGGAACGUGGCUUUGGCUAGCCUGCC [A4C C23G A26C G33U A41C] has a self-cleavage of 0.11. In the case of GGCCGAGCUCAACACAGCGUGGCAAAGUGGCUGCGGUUAGACUGCC [A4C U34C C37U], the self-cleavage is reported as 0.01.
